Among all 330,000 compounds or so, about 4,200 (1.3%) were called active. Inconclusive means that the source gave no clear call. Such entries were picked first, then a sample of the others. The call rests on the fitted dose curve; in most records, active means well fitted activation curve with a large enough effect; inconclusive means small, poorly fitted or top-dose-only effect; inactive means no such curve, though single readings can be large or run the other way. Potencies beside an inconclusive call are fits to weak or partial responses and may not hold up.
Assay: qHTS screen for small molecules that induce genotoxicity in human embryonic kidney (HEK293T) cells expressing luciferase-tagged ELG1; further: nearly all actives have a fitted effect of over 60% in size
Settings: HEK293T ELG1-luciferase reporter, luminescence, 16 h; series mostly up to 46 µM
In short: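 After overnight (16 hr) compound treatment at 37 °C, ELG1-luciferase HEK293T cells were lysed with ONE-Glo; luminescence quantified 30 min later at room temperature.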
For `COc1cc(C(=O)NCC(=O)N/N=C/c2ccc(-c3cccc([N+](=O)[O-])c3)o2)cc(OC)c1OC`, the Potency was “inactive”. With `CC(=O)c1csc(COc2ccc(Cl)cc2)n1` the Potency was inconclusive: 3.66 µM [activator, full curve]. For `C#CCNC(=O)/C=C/c1ccc(C)cc1`, the Potency was inconclusive: 20.6 µM [activator, partial curve]. With `O=C(N/N=C/c1cc(Br)ccc1O)c1ccncc1` the Potency was inconclusive: 11.6 µM [activator, partial curve, poor fit]. For `O=C(Nc1nnc(C2CCCCC2)s1)c1ccc(Br)s1`, the Potency was inconclusive: 2.31 µM [activator, partial curve, poor fit]. With `CNC(=O)CSc1nc2c(c(=O)n(C)c(=O)n2C)n1Cc1ccc(C)cc1` the Potency was inconclusive: 20.6 µM [activator, partial curve]. In the case of `C(=C\c1cc(/C=C/c2ccccc2)ncn1)/c1ccccc1`, the Potency was inconclusive: 16.4 µM [activator, partial curve, poor fit]. With `COc1cccc2cc(-c3nc4ccccc4[nH]3)c(=O)oc12` the Potency was inconclusive: 1.83 µM [activator, full curve]. With `O=C(N1CCOCC1)C1(S(=O)(=O)c2ccccc2)CC=CC1` the Potency was “inactive”. In the case of `O=C(NCCc1csc(-c2cccnc2)n1)c1cccs1`, the Potency was “inactive”. In the case of `O=S(=O)(Nc1ccc2c(c1)OCCO2)c1cccc2nsnc12`, the Potency was active: 16.4 µM. In the case of `O=C(NC(=O)N1CCN(c2ccccc2)CC1)c1ccc(Cl)cc1`, the Potency was inconclusive: 20.6 µM [activator, partial curve, poor fit]. In the case of `Clc1ccccc1Cn1nnc(-c2ccccc2)n1`, the Potency was inconclusive: 16.4 µM [activator, partial curve, poor fit]. In the case of `CCOC(=O)c1ccc(NC(=O)c2cc3c(s2)CCC3)cc1`, the Potency was “inactive”. For `C=CCNc1ncnc2c1[nH]c1ccc(C)cc12`, the Potency was active: 9.2 µM. With `O=c1[nH]ncc(N/N=C\c2cccnc2)c1Cl` the Potency was inconclusive: 20.6 µM [activator, single point]. For `CCOc1ccc(Cn2c3ccc(OC)cc3c3nc4ccccc4nc32)cc1`, the Potency was inconclusive: 32.6 µM [activator, partial curve, poor fit]. For `CCN(CC)C(=O)c1ccc(COc2ccccc2Cl)o1`, the Potency was “inactive”. For `COCc1nnc(NC(=O)CCSc2ccccc2)s1`, the Potency was inconclusive: 20.6 µM [activator, partial curve, poor fit]. In the case of `CC1CC(C)(C)n2c(O)c(N=NC(N)=S)c3cccc1c32` (stereo unspecified), the Potency was inconclusive: 32.6 µM [activator, single point]. With `O=C(Nc1nccs1)c1ccc(Br)cc1` the Potency was inconclusive: 13 µM [activator, partial curve]. In the case of `COc1ccc(C(O)(CCc2ccccc2)CCN2CCCCC2)cc1` (stereo unspecified), the Potency was inconclusive: 3.66 µM [activator, single point]. With `CCC(=O)n1nc(-c2ccc(OC)cc2)nc1SC` the Potency was inconclusive: 23.1 µM [activator, single point]. For `Cc1cccc(C)c1NC(=O)CN1CCN(CC(=O)c2cc(C)n(C3CC3)c2C)CC1`, the Potency was “inactive”. In the case of `COC(=O)c1ccc(N2CCN(c3ccccc3)CC2)nc1`, the Potency was inconclusive: 20.6 µM [activator, single point]. With `COc1cccc(C2=NOC(C(=O)Nc3cccnc3Cl)C2)c1` (stereo unspecified) the Potency was “inactive”. In the case of `CCCCN(C)S(=O)(=O)c1cc2c3c(c1)CCC(=O)N3CCC2`, the Potency was “inactive”. In the case of `CCOc1ccc(OCC(=O)Nc2nccs2)cc1`, the Potency was active: 0.92 µM. In the case of `O=C(Nc1ccc2nn(-c3ccccc3)nc2c1)c1ccc(Br)o1`, the Potency was inconclusive: 23.1 µM [activator, single point]. In the case of `Nc1c(-c2n[nH]c(=S)n2-c2ccc(Cl)cc2Cl)cnn1-c1ccccc1`, the Potency was “inactive”. For `CCCCNc1ccc(C(CC(N)=O)NC(=O)Cc2ccc(Br)cc2)cc1[N+](=O)[O-]` (stereo unspecified), the Potency was inconclusive: 20.6 µM [activator, partial curve, poor fit]. For `O=C(NN=C1CCCC1)c1ccc(Br)cc1`, the Potency was “inactive”. For `CC(C)[C@H](NC(=O)c1ccco1)C(=O)OCC(=O)c1ccc2c(c1)NC(=O)CO2`, the Potency was “inactive”. In the case of `NC(=O)C1CCN(c2nc(-c3ccc4ccccc4c3)cs2)CC1`, the Potency was “inactive”. For `O=Cc1cn(CCOc2ccccc2F)c2ccccc12`, the Potency was “inactive”. With `C=CCn1c(N/N=C/c2ccc(O)cc2)nc2ccccc2c1=O` the Potency was inconclusive: 9.2 µM [activator, partial curve, poor fit]. For `COc1ccc2cc3cc(C(=O)N4CCN(Cc5ccc6c(c5)OCO6)CC4)oc3nc2c1`, the Potency was “inactive”. For `O=C(c1ccccc1-n1cccc1)N1N=C(C(F)F)CC1(O)C(F)F` (stereo unspecified), the Potency was “inactive”. For `Clc1ccc(SCc2cn3ccccc3n2)cc1`, the Potency was inconclusive: 7.3 µM [activator, partial curve]. In the case of `CCc1ccc(-c2cc(C(=O)NCc3ccccn3)c3ccccc3n2)cc1`, the Potency was “inactive”. With `COc1ccccc1C(=O)Nc1ccc2c(c1)nc(CN1CCN(C(C)=O)CC1)n2C` the Potency was “inactive”. With `CCCC(=O)Nc1ccc(NC(=O)C23CC4CC(CC(C4)C2)C3)cn1` the Potency was inconclusive: 29.1 µM [activator, single point]. For `CN1C(=O)/C(=C/C=C2\SCCN2C)OC1=S`, the Potency was inconclusive: 14.6 µM [activator, partial curve]. For `CCC(C)NC(=O)c1cc(-c2ccccc2O)on1` (stereo unspecified), the Potency was inconclusive: 13 µM [activator, partial curve]. In the case of `CC(C)Oc1ccccc1C1Nc2ccccc2C(=O)N1c1ccc2c(c1)OCCO2` (stereo unspecified), the Potency was inconclusive: 3.66 µM [activator, full curve]. In the case of `Cc1cc(SCC(=O)NC2CC2)nc2ccccc12`, the Potency was inconclusive: 20.6 µM [activator, partial curve, poor fit]. With `O=C1CC(NS(=O)(=O)c2cc(F)ccc2F)CN1c1ccc2c(c1)OCCO2` (stereo unspecified) the Potency was “inactive”. For `O=C(N/N=C/c1ccccc1F)c1csc2c1CCCC2`, the Potency was inconclusive: 2.06 µM [activator, full curve]. In the case of `O=C(Nc1ccccc1F)c1ccc2c(c1)OCO2`, the Potency was inconclusive: 10.3 µM [activator, partial curve]. For `CCc1ccc2[nH]c(C(=O)Nc3ccc(Br)c(C)n3)cc2c1`, the Potency was inconclusive: 7.3 µM [activator, partial curve]. In the case of `O=C(COc1ccccc1F)Nc1nc(-c2ccccn2)cs1`, the Potency was “inactive”. For `O=C(N/C=C/c1ccccc1)c1ccccc1`, the Potency was inconclusive: 2.06 µM [activator, full curve]. With `COCC(=O)N(CCc1ccc(OC)c(OC)c1)Cc1cc2cc(C)ccc2nc1Cl` the Potency was “inactive”. With `COc1cccc(-c2nn(C)c3sc(C(=O)Nc4ccc5c(c4)OCCO5)cc23)c1` the Potency was inconclusive: 2.91 µM [activator, full curve, poor fit]. In the case of `CCc1ccc2c(COC(=O)c3n[nH]c4ccccc34)cc(=O)oc2c1`, the Potency was inconclusive: 5.01 µM [activator, partial curve]. With `CCOc1ccc(/C=N/NC(=O)c2[nH]ncc2Br)c(O)c1` the Potency was inconclusive: 2.59 µM [activator, full curve]. For `c1ccc(-n2ncc3c(N4CCCCC4)ncnc32)cc1`, the Potency was active: 0.461 µM. With `Cc1ccc(NC(=O)C(C)Sc2nnc(-c3cccnc3)o2)cc1` (stereo unspecified) the Potency was inconclusive: 16.4 µM [activator, partial curve, poor fit]. For `COc1ccccc1N=c1oc2c(OC)cccc2cc1C(=O)NCc1ccco1`, the Potency was inconclusive: 25.9 µM [activator, single point]. With `CC12CCC(C(=O)NC(c3ccccc3)c3ccccc3)(OC1=O)C2(C)C` (stereo unspecified) the Potency was “inactive”. With `O=C(O)C1CSC(c2ccccc2)N1C(=O)c1ccco1` (stereo unspecified) the Potency was “inactive”. With `Cc1cccc2cc(CN(CCN3CCCC3)C(=O)NC3CCCCC3)c(=O)[nH]c12` the Potency was “inactive”. For `Cc1ccc(-c2nc(C#N)c(NCCCn3ccnc3)o2)cc1`, the Potency was inconclusive: 23.1 µM [activator, single point]. In the case of `CC(C)(C)c1ccc(C(=O)NCC2CCCN2S(=O)(=O)c2ccccc2)cc1` (stereo unspecified), the Potency was inconclusive: 5.17 µM [activator, full curve]. With `Cc1cc(NC(=O)C2CCN(C(=O)c3ccco3)CC2)ccc1Br` the Potency was inconclusive: 29.1 µM [activator, single point]. With `CCC1CCc2sc(C(=O)NCC(c3ccc(OC)cc3)N3CCCC3)cc2C1` (stereo unspecified) the Potency was “inactive”. In the case of `CCCC#Cc1ccc2c(c1)COc1c3ccccc3nn1-2`, the Potency was inconclusive: 1.16 µM [activator, full curve, poor fit]. With `Cc1ccc(Nc2nc(=O)c3cccnc3s2)c(Br)c1` the Potency was “inactive”. For `CC(C)(C)C(=O)Nc1ccc(-c2csnn2)cc1`, the Potency was inconclusive: 18.3 µM [activator, partial curve, poor fit]. With `O=C(N/N=C/c1ccccc1[N+](=O)[O-])c1ccc2nc[nH]c2c1` the Potency was inconclusive: 25.9 µM [activator, partial curve, poor fit]. In the case of `Clc1ccc(-c2nnc(-c3ccccc3Cl)o2)cc1`, the Potency was inconclusive: 1.84 µM [activator, full curve]. In the case of `O=C(/C=C/c1ccc(Cl)cc1Cl)N1CCc2ccccc21`, the Potency was active: 6.51 µM. With `O=C(Nc1ccc(N2CCOCC2)c(Cl)c1)c1ncn[nH]1` the Potency was “inactive”. In the case of `O=C(NNC(=O)c1ccccc1F)c1cccc(-n2cccc2)c1`, the Potency was inconclusive: 18.3 µM [activator, single point]. In the case of `C=CCOc1ccc(-c2nc3c(c(=O)[nH]c(=O)n3CCCC)n2C)cc1OC`, the Potency was inconclusive: 8.2 µM [activator, partial curve, poor fit]. In the case of `CC1(C)Cc2nc3sc4c(=O)n(CC(=O)NCc5ccco5)cnc4c3cc2CO1`, the Potency was inconclusive: 18.4 µM [activator, single point].

Source: PubChem BioAssay AID504466 (National Center for Advancing Translational Sciences (NCATS), 2011)
Potency means the concentration at half of the fitted maximal effect; tags describe the fitted curve by direction and shape.
